# Results from paper PMC4336329 (PLoS ONE, 2015).
# Hit rate of the full screen: of about 310,000 compounds, about 2,200 (0.71%) showed an effect of 50% or more. Effects have a minus sign here. The list shows a part of the results.
# Molecular target: human ether-à-go-go-related gene (hERG) potassium channel (human, UniProt Q12809)
# Test: primary screen, population patch clamp on CHO cells stably expressing hERG
# Sequence of human ether-à-go-go-related gene (hERG) potassium channel (Q12809 whole entry, looked up): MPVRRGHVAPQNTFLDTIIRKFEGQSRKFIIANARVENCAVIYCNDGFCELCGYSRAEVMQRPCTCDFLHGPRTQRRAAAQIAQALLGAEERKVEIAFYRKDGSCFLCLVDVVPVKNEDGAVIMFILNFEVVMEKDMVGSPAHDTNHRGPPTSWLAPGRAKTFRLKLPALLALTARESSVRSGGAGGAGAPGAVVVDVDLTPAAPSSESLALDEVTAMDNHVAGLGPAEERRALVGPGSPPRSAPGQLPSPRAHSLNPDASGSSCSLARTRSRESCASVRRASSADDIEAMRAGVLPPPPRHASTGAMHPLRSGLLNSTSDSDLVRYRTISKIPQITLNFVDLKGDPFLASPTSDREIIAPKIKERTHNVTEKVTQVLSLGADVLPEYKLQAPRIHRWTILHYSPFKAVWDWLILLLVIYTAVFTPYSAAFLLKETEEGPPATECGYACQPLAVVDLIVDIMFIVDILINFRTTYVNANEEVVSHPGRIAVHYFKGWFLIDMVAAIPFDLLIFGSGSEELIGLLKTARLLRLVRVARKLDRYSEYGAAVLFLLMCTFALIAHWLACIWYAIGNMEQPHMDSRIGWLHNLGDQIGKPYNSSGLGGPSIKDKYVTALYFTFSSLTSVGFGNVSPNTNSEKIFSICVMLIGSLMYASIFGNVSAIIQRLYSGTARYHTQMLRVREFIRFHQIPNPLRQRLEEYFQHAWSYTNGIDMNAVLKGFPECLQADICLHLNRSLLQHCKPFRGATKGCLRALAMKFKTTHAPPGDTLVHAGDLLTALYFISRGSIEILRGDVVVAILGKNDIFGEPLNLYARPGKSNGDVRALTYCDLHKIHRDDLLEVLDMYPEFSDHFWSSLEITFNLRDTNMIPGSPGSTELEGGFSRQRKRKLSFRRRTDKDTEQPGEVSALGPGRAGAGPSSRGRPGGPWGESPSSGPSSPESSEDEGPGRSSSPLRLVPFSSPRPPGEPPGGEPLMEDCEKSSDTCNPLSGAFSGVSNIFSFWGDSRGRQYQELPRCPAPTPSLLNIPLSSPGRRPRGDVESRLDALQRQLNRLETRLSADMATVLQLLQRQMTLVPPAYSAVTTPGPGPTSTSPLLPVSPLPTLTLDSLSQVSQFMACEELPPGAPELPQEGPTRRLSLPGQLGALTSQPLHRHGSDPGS
row,SMILES,"hERG current change (%, negative = inhibition) at 1uM [%]"
1,Cl.O=C(NCCCN1CCOCC1)c1ccc(CSc2ccc(Cl)cc2)cc1,-8.96
2,O=C(N/N=C/c1c(O)n(-c2ccc(Cl)cn2)c(=O)c2ccccc12)c1ccncc1,25.1
3,O=C(NCCN1C(=O)C2C3C=CC(C3)C2C1=O)Nc1ccccc1 (centres unmarked),-7.26
4,CC(C)(C)c1ccc(C(=O)N2CCN(c3nc4ccccc4o3)CC2)cc1,14.5
5,COc1ccc(NS(=O)(=O)c2cc(NC(=O)/C=C/c3cc(OC)ccc3OC)ccc2N2CCCCC2)cc1,-7.48
6,Cc1sc2ncnc(OCC(=O)N3CCN(C(=O)c4ccco4)CC3)c2c1C,5.55
7,COc1cc([N+](=O)[O-])ccc1NC(=O)COC(=O)CCS(=O)(=O)c1ccc(C)cc1,14.6
8,COC(=O)c1cccc(NC(=O)CN2CCN(c3ccc(OC)cc3)CC2)c1,4.34
9,Br.CCCCCCCC1CC(CSC(=N)N)OC1=O (centres unmarked),-6.65
10,Cc1cccc2c(=O)c(C(=O)NCCc3ccccc3)c[nH]c12,24
11,CCn1ncc(C(=O)Nc2cccc(Cl)c2)c1C,3.95
12,Cc1nn(-c2ccc(N3CCOCC3)nn2)c(C)c1CCC(=O)NCc1ccc(F)cc1,10.1
13,Cc1ccc(C)c(NS(=O)(=O)c2cc(C(=O)NCc3ccccn3)ccc2C)c1,2.23
14,COc1ccc(OC)c(S(=O)(=O)N(C)CC(=O)Nc2ccc3c(c2)OCO3)c1,2.14
15,Cc1cnc(NS(=O)(=O)c2ccc(Cl)cc2)c(Br)c1,15.4
16,CC(C)C(OC(=O)c1ccco1)C(=O)NCc1cccs1 (centres unmarked),9.85
17,Cl.c1ccc(COc2cccc(CNCc3cccs3)c2)cc1,15.5
18,COc1ccc(N(C(=O)c2snc(C(N)=O)c2N)C(CC(C)C)C(=O)NCC2CCCO2)cc1 (centres unmarked),-5.17
19,Cc1ccc2c(c1)C1CN(C)CCC1N2C(=O)COc1ccccc1F (centres unmarked),7.87
20,Cc1cc(Nc2ccccc2)nn1C(=O)c1ccccc1,8.68
21,COc1ccc(Cl)cc1NC(=O)c1nnn(CC(=O)Nc2ccc(OC)c(OC)c2)c1N,10.5
22,O=C(O)CSc1nc2ccccc2[nH]1,13.8

row,SMILES,"hERG current change (%, negative = inhibition) at 1uM [%]"
1,CC(=O)Nc1ccc(C2=CC(=O)C[C@H](c3ccc4c(c3)OCO4)C2)cc1,12.3
2,Cc1cccc(NC(=O)c2nc[nH]c2C(=O)NCC(=O)OC(C)(C)C)c1,12.9
3,NS(=O)(=O)c1cc2c(cc1Cl)NC(C(Cl)Cl)NS2(=O)=O (centres unmarked),13.4
4,CC(=O)Nc1c(O)nc(SCC(=O)N2CCCCC2)[nH]c1=O,11
5,CN(CC(=O)Nc1ccc(Cl)cc1)C(=O)CNC(=O)c1ccc2ccccc2c1,12.8
6,COc1ccc(-n2ncc3c2CC(C)(C)CC3NC(=O)CSc2ccccn2)cc1 (centres unmarked),-14.1
7,Cc1c(C)n(Cc2ccccc2)c2ncnc(NCCN(C)C)c12,9.1
8,O=C(C1CCC(CNS(=O)(=O)c2ccccc2)CC1)N1CCOCC1 (centres unmarked),14.2
9,COc1ccc(C(=O)NCCNC(=O)c2cc(OCC(F)(F)F)ccc2OCC(F)(F)F)cc1,7.54
10,CCCN(CCC)CCNC(=O)c1cc2c(=O)n(C)c3ccccc3c2n1C,-12.9
11,CCOC(=O)Cc1csc(NS(=O)(=O)c2ccc(Cl)cc2)n1,0.926
12,O=C(/C(=C/c1cccnc1)n1ccnc1)c1ccc(Cl)cc1Cl,6.78
13,C/C(=N\Nc1c(Cl)c(Cl)nc(C(=O)O)c1Cl)c1ccc(O)cc1,14.1
14,CC1CCCCN1C(=O)c1cc(F)c(F)cc1Cl (centres unmarked),11.4
15,O=C(Nc1ccc(Cl)c(S(=O)(=O)N2CCOCC2)c1)c1ccc2c(c1)OCCO2,10.3
16,O=C(CNC(=O)c1ccc(Cl)cc1)c1ccc(Cl)cc1,11.4
17,O=C(O)CCc1ccc(-c2ccc(F)cc2)n1NC(=O)c1ccco1,9.01
18,Cc1c(C(=O)NC(=S)NCc2cccnc2)cccc1[N+](=O)[O-],16.9
19,Cc1nnc(SCC(=O)Nc2nsc(-c3ccccc3)n2)s1,9.47
20,COc1cc(OC)c(OC)cc1CNc1nnnn1C,-3.98
21,Cc1ccc(NC(=O)c2cccc(OC(F)F)c2)c(OC(F)F)c1,4.36
22,CC(CCc1ccccc1)NC(=O)Cc1cccs1 (centres unmarked),1.17
